# Measurements: the supplement of paper PMC8728848
# This is one part of the list.
# B1: DrGal9 (Danio rerio) (protein)
# chain: MAFYQQPPYYNPRIPFSGPIQGGLQDGKSIIISGRVLPGANRFHVNLQCGSHSEANVALHFNPRYEDTDYVVNNSYLNRTWGSEERKYESPFAQGQTFTLQILVAQDKYKISTNGRHFMDYKHRIPFTQVDTVAVEGMVEVNSVAFQNPAGFIPPQAGYAPQYAVPPGCGFPAFPSAPNYTIPHKTVMNGGLHPGKNIVINGVVNPNAKSIIFNLCYRSGIAFHYNPRFDENVVVRNTNQMEKWGAEERFGGLPFHKGQPFQVTISCNPQHYNVFVNGKQEHTYKHRYTKLNDIDILEICGDLQLTSVQA
# What was measured:
# Test in all cases: glycan array binding signal (z-score within array); higher = stronger binding
# Conditions in all cases: glycan notation: IUPAC condensed, linker removed
# [1] = target: Neu5Ac(a2-6)Gal(b1-4)GlcNAc(b1-2)Man(a1-3)[Gal(b1-4)GlcNAc(b1-2)Man(a1-6)]Man(b1-4)GlcNAc(b1-4)GlcNAc
# Procedure, shortened: (§1)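 Columns mapping to the same glycan were averaged after glycan names were converted to IUPAC-condensed notation. The data come from 3228 arrays in the Consortium for Functional Glycomics database, limited to those with an available protein sequence. Binding is reported as a within-array Z-score averaged across arrays of one protein sequence and across linkers.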
# [2] = target: Neu5Ac(a2-6)Gal(b1-4)GlcNAc(b1-2)Man(a1-3)[GlcNAc(b1-2)Man(a1-6)]Man(b1-4)GlcNAc(b1-4)GlcNAc
# Procedure, shortened: as §1
# [3] = target: Neu5Ac(a2-6)Gal(b1-4)GlcNAc(b1-2)Man(a1-3)[GlcNAc(b1-4)][Neu5Ac(a2-6)Gal(b1-4)GlcNAc(b1-2)Man(a1-6)]Man(b1-4)GlcNAc(b1-4)GlcNAc
# Procedure, shortened: as §1
# [4] = target: Neu5Ac(a2-6)Gal(b1-4)GlcNAc(b1-2)Man(a1-3)[Man(a1-6)]Man(b1-4)GlcNAc(b1-4)GlcNAc
# Procedure, shortened: as §1
# [5] = target: Neu5Ac(a2-6)Gal(b1-4)GlcNAc(b1-2)Man(a1-3)[Neu5Ac(a2-3)Gal(b1-4)GlcNAc(b1-2)Man(a1-6)]Man(b1-4)GlcNAc(b1-4)GlcNAc
# Procedure, shortened: as §1
# [6] = target: Neu5Ac(a2-6)Gal(b1-4)GlcNAc(b1-2)Man(a1-3)[Neu5Ac(a2-6)Gal(b1-4)GlcNAc(b1-2)Man(a1-6)]Man(b1-4)GlcNAc(b1-4)GlcNAc
# Procedure, shortened: as §1
# [7] = target: Neu5Ac(a2-6)Gal(b1-4)GlcNAc(b1-2)Man(a1-3)[Neu5Ac(a2-6)Gal(b1-4)GlcNAc(b1-2)Man(a1-6)]Man(b1-4)GlcNAc(b1-4)[Fuc(a1-6)]GlcNAc
# Procedure, shortened: as §1
# [8] = target: Neu5Ac(a2-6)Gal(b1-4)GlcNAc(b1-2)Man(a1-6)Man(b1-4)GlcNAc(b1-4)GlcNAc
# Procedure, shortened: as §1
# [9] = target: Neu5Ac(a2-6)Gal(b1-4)GlcNAc(b1-2)Man(a1-6)[Gal(b1-4)GlcNAc(b1-2)Man(a1-3)]Man(b1-4)GlcNAc(b1-4)GlcNAc
# Procedure, shortened: as §1
# [10] = target: Neu5Ac(a2-6)Gal(b1-4)GlcNAc(b1-2)Man(a1-6)[GlcNAc(b1-2)Man(a1-3)]Man(b1-4)GlcNAc(b1-4)GlcNAc
# Procedure, shortened: as §1
# [11] = target: Neu5Ac(a2-6)Gal(b1-4)GlcNAc(b1-2)Man(a1-6)[Man(a1-3)]Man(b1-4)GlcNAc(b1-4)GlcNAc
# Procedure, shortened: as §1
# [12] = target: Neu5Ac(a2-6)Gal(b1-4)GlcNAc(b1-2)[Neu5Ac(a2-6)Gal(b1-4)GlcNAc(b1-4)]Man(a1-3)[GlcNAc(b1-4)][Neu5Ac(a2-6)Gal(b1-4)GlcNAc(b1-2)[Neu5Ac(a2-6)Gal(b1-4)GlcNAc(b1-6)]Man(a1-6)]Man(b1-4)GlcNAc(b1-4)GlcNAc
# Procedure, shortened: as §1
# [13] = target: Neu5Ac(a2-6)Gal(b1-4)GlcNAc(b1-2)[Neu5Ac(a2-6)Gal(b1-4)GlcNAc(b1-4)]Man(a1-3)[GlcNAc(b1-4)][Neu5Ac(a2-6)Gal(b1-4)GlcNAc(b1-4)Man(a1-6)]Man(b1-4)GlcNAc(b1-4)GlcNAc
# Procedure, shortened: as §1
# [14] = target: Neu5Ac(a2-6)Gal(b1-4)GlcNAc(b1-2)[Neu5Ac(a2-6)Gal(b1-4)GlcNAc(b1-6)]Man(a1-6)[Neu5Ac(a2-6)Gal(b1-4)GlcNAc(b1-2)Man(a1-3)][GlcNAc(b1-4)]Man(b1-4)GlcNAc(b1-4)GlcNAc
# Procedure, shortened: as §1
# [15] = target: Neu5Ac(a2-6)Gal(b1-4)GlcNAc(b1-3)Gal(b1-3)GlcNAc
# Procedure, shortened: as §1
# [16] = target: Neu5Ac(a2-6)Gal(b1-4)GlcNAc(b1-3)Gal(b1-4)GlcNAc
# Procedure, shortened: as §1
# [17] = target: Neu5Ac(a2-6)Gal(b1-4)GlcNAc(b1-3)Gal(b1-4)GlcNAc(b1-2)Man(a1-3)[Neu5Ac(a2-6)Gal(b1-4)GlcNAc(b1-3)Gal(b1-4)GlcNAc(b1-2)Man(a1-6)]GalNAc
# Procedure, shortened: as §1
# [18] = target: Neu5Ac(a2-6)Gal(b1-4)GlcNAc(b1-3)Gal(b1-4)GlcNAc(b1-3)Gal(b1-4)GlcNAc
# Procedure, shortened: as §1
# [19] = target: Neu5Ac(a2-6)Gal(b1-4)GlcNAc(b1-3)Gal(b1-4)GlcNAc(b1-3)Gal(b1-4)GlcNAc(b1-2)Man(a1-3)[Neu5Ac(a2-6)Gal(b1-4)GlcNAc(b1-3)Gal(b1-4)GlcNAc(b1-3)Gal(b1-4)GlcNAc(b1-2)Man(a1-6)]GalNAc
# Procedure, shortened: as §1
# [20] = target: Neu5Ac(a2-6)Gal(b1-4)GlcNAc(b1-3)Gal(b1-4)GlcNAc(b1-3)GalNAc
# Procedure, shortened: as §1
# [21] = target: Neu5Ac(a2-6)Gal(b1-4)GlcNAc(b1-3)Gal(b1-4)GlcNAc(b1-3)[Neu5Ac(a2-6)Gal(b1-4)GlcNAc(b1-3)Gal(b1-4)GlcNAc(b1-6)]GalNAc
# Procedure, shortened: as §1
# [22] = target: Neu5Ac(a2-6)Gal(b1-4)GlcNAc(b1-3)Gal(b1-4)GlcNAc(b1-6)[Gal(b1-3)]GalNAc
# Procedure, shortened: as §1
# [23] = target: Neu5Ac(a2-6)Gal(b1-4)GlcNAc(b1-3)Gal(b1-4)[Fuc(a1-3)]GlcNAc(b1-3)Gal(b1-4)[Fuc(a1-3)]GlcNAc
# Procedure, shortened: as §1
# [24] = target: Neu5Ac(a2-6)Gal(b1-4)GlcNAc(b1-3)GalNAc
# Procedure, shortened: as §1
# [25] = target: Neu5Ac(a2-6)Gal(b1-4)GlcNAc(b1-3)[Neu5Ac(a2-6)Gal(b1-4)GlcNAc(b1-6)]GalNAc
# Procedure, shortened: as §1
# [26] = target: Neu5Ac(a2-6)Gal(b1-4)GlcNAc(b1-6)GalNAc
# Procedure, shortened: as §1
# [27] = target: Neu5Ac(a2-6)Gal(b1-4)GlcNAc(b1-6)[Gal(b1-3)GlcNAc(b1-3)]Gal(b1-4)Glc
# Procedure, shortened: as §1
# [28] = target: Neu5Ac(a2-6)Gal(b1-4)GlcNAc(b1-6)[Gal(b1-3)]GalNAc
# Procedure, shortened: as §1
# [29] = target: Neu5Ac(a2-6)Gal(b1-4)GlcNAc6S
# Procedure, shortened: as §1
# [30] = target: Neu5Ac(a2-6)GalNAc
# Procedure, shortened: as §1
# [31] = target: Neu5Ac(a2-6)GalNAc(b1-4)GlcNAc
# Procedure, shortened: as §1
# [32] = target: Neu5Ac(a2-6)GalNAc(b1-4)GlcNAc6S
# Procedure, shortened: as §1
binder,measurement,setting,value
B1,glycan array binding signal (z-score),[1],0.114
same,glycan array binding signal (z-score),[2],-0.541
same,glycan array binding signal (z-score),[3],-0.405
same,glycan array binding signal (z-score),[4],-0.403
same,glycan array binding signal (z-score),[5],-0.159
same,glycan array binding signal (z-score),[6],-0.398
same,glycan array binding signal (z-score),[7],-0.382
same,glycan array binding signal (z-score),[8],-0.399
same,glycan array binding signal (z-score),[9],0.46
same,glycan array binding signal (z-score),[10],-0.4
same,glycan array binding signal (z-score),[11],-0.373
same,glycan array binding signal (z-score),[12],-0.477
same,glycan array binding signal (z-score),[13],-0.389
same,glycan array binding signal (z-score),[14],-0.406
same,glycan array binding signal (z-score),[15],0.172
same,glycan array binding signal (z-score),[16],0.223
same,glycan array binding signal (z-score),[17],1.22
same,glycan array binding signal (z-score),[18],0.598
same,glycan array binding signal (z-score),[19],0.198
same,glycan array binding signal (z-score),[20],0.241
same,glycan array binding signal (z-score),[21],-0.086
same,glycan array binding signal (z-score),[22],0.195
same,glycan array binding signal (z-score),[23],-0.38
same,glycan array binding signal (z-score),[24],-0.409
same,glycan array binding signal (z-score),[25],-0.419
same,glycan array binding signal (z-score),[26],-0.378
same,glycan array binding signal (z-score),[27],-0.203
same,glycan array binding signal (z-score),[28],-0.35
same,glycan array binding signal (z-score),[29],-0.363
same,glycan array binding signal (z-score),[30],-0.4
same,glycan array binding signal (z-score),[31],-0.407
same,glycan array binding signal (z-score),[32],-0.371
